Among all 310,000 compounds or so, about 14,000 (4.5%) showed an effect of 50% or more. The effect is printed as a negative number. The list shows a part of the results.
target: human ether-à-go-go-related gene (hERG) potassium channel (human, UniProt Q12809); assay: primary screen, population patch clamp on CHO cells stably expressing hERG
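Further: peak tail current of the secondary pulse compared with the same well before compound.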

Sequence of human ether-à-go-go-related gene (hERG) potassium channel (Q12809 whole entry, looked up): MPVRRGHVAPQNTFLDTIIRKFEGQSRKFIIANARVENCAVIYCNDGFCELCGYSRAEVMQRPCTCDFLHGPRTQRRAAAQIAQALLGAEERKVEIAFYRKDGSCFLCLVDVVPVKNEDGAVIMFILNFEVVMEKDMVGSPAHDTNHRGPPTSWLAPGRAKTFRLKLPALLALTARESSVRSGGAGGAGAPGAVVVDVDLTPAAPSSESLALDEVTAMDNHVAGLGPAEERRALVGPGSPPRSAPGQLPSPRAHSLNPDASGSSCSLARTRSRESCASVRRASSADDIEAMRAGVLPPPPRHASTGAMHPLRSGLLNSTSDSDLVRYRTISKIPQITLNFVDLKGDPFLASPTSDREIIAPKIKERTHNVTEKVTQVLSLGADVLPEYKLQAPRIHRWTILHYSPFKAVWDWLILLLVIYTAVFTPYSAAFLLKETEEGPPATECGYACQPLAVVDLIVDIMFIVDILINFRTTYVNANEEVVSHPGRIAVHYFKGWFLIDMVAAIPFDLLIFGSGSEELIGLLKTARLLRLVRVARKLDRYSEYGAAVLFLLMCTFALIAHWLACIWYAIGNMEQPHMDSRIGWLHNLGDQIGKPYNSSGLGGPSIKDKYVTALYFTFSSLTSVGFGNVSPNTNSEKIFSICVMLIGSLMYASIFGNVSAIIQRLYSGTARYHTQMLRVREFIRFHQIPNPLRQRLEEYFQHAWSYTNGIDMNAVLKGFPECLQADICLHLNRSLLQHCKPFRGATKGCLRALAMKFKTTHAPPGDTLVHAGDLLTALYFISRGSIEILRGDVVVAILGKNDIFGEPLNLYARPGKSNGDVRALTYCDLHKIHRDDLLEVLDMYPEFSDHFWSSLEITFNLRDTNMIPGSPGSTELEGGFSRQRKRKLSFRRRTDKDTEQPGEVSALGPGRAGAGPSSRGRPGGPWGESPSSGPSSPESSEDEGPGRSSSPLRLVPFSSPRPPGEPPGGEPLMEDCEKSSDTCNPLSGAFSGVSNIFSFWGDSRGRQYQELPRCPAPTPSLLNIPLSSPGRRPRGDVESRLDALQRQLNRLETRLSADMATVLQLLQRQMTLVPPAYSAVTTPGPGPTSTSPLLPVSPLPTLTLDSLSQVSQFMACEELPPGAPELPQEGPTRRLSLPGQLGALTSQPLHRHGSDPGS

SMILES | hERG current change (%, negative = inhibition) at 10uM [%]
O=C(COC(=O)CCc1ccccc1)NCc1ccccc1 | 11
CC(=O)c1ccc(NC(=O)C(C)n2c3ccccc3c3nc(=O)cc(C)n32)cc1 (stereo not drawn) | -9.3
C/C(=N\NC(=O)c1nn(C)c(C)c1Br)c1ccc(NC(=O)c2ccc(C)s2)cc1 | -1.3
CC1(C)C(C=C(Cl)Cl)C1C(=O)Nc1ccc([N+](=O)[O-])cc1 (stereo not drawn) | 18.9
CC(=O)/C(=N/Nc1ccccc1C)N1CCOCC1.Cl | 4.07
O=C(CSc1ncn[nH]1)NN(c1ccccc1)c1ccccc1 | -4.47
CSc1ccccc1NC(=O)CN1CCCCC1C (stereo not drawn) | 0.324
O=C(CCn1c2c(c3ccccc31)CCCC2)NNC(=O)c1ccccc1Cl | 3.1
COc1ccc(C)cc1NC(=O)C(OC(=O)c1ccc(Cl)c(S(=O)(=O)N(C)c2ccccc2)c1)c1ccccc1 (stereo not drawn) | -0.711
FC(F)(F)c1ccc(-n2ccnc2)nc1 | -5.26
Cc1cccc(-c2nc3ccccc3c(=O)n2-n2cccc2)c1 | -34.6
CCN(CC(=O)Nc1ccccc1C(F)(F)F)C(=O)CCS(=O)(=O)c1ccc(C)cc1 | 10
CCOC(=O)C1=C(CN2CCSCC2)NC(=O)NC1c1cc(C)ccc1C (stereo not drawn) | -2.22
CCN(CC)S(=O)(=O)c1cccc(NC(=O)CCNC(=O)c2ccccc2Cl)c1 | -22.6
CN(C)C=NC(=O)c1cn(-c2ccc(F)cc2)c(=O)c2ccccc12 | 15.1
Cc1ccc(Nc2nc3ccccc3n3cnnc23)cc1Cl | 12.1
COc1ccc(/C=N/N2CCN(Cc3ccccc3)CC2)cc1 | -2.63
Cc1ccc(-c2nc(NC(=O)c3nn(C)cc3[N+](=O)[O-])sc2C)cc1 | -11.7
COc1cccc(-n2c(SCC(=O)N3CCOCC3)nnc2-c2c[nH]c3ccccc23)c1 | 5.14
CCN1C(=O)N(C)C2(c3ccccc3)N(C)C(=O)N(C)C12c1ccccc1 (stereo not drawn) | 2.96
COc1ccc(CCNC(=O)C2CC3Cn4c(nc5cc(Cl)c(Cl)cc54)C3N2C)cc1 (stereo not drawn) | -23.5
COc1ccc(C2=Nn3c(nnc3-c3ccco3)SC2)cc1OC | -54.1

SMILES | hERG current change (%, negative = inhibition) at 10uM [%]
CCOC(=O)N1CCN(C(=O)c2nc3ccccc3s2)CC1 | -0.815
Cc1ccc(C(c2nnnn2Cc2ccccc2)N2CC=C(c3ccc(F)cc3)CC2)cc1 (stereo not drawn) | 11.5
O=[N+]([O-])c1nn(-c2ccc3c(c2)OCCO3)n(O)c1=NC1CCN(Cc2ccccc2)CC1 | -17.8
COc1ccc(/C=C/CN2CCN(Cc3ccc(F)cc3)C(CCO)C2)cc1 (stereo not drawn) | -58.5
Cc1nn(C)cc1CNC(=O)Nc1ccc(Br)cc1Cl | -22.2
Cc1ccc(/C=N/NC(=O)CNC(=O)Cc2ccccc2)o1 | 4.78
CCCS(=O)(=O)N1CCCC(C(=O)Oc2ccc(Cl)cc2)C1 (stereo not drawn) | 14.5
Br.CCOC(=O)c1ccc(N=c2scc(C)n2CC)cc1 | 14.6
CCN(CC)C(=O)CSc1nc2c(sc(=S)n2-c2ccc(C)cc2C)c(=O)[nH]1 | 18.1
COc1ccc(OC)c(-c2c[n+](=O)c3c(n2[O-])CCCC3)c1 | 16.5
CNC(=O)c1cc(S(=O)(=O)Nc2ccc3c(c2)OCO3)ccc1C | 4.42
COc1cc(C2C(C(=O)OC(C)C)=C(C)Nc3[nH]c(=O)[nH]c(=O)c32)ccc1O (stereo not drawn) | 2.88
CCCn1c(SCC(=O)Nc2ccc(OC)cc2)nnc1-c1ccncc1 | -0.0475
COc1ccc(C(=O)CCC(=O)NCCc2ccccc2F)cc1 | -1.94
CN(C(=S)NC(=O)c1ccc(Cl)cc1)C1CCCCC1 | 18.4
O=c1[nH]cnc2c1sc1nc3c(c(-c4ccc(Cl)cc4)c12)CCC3 | -0.313
O=C(CN1C(=O)NC(c2ccccc2)(c2ccccc2)C1=O)N1CCOCC1 | 0.969
Cc1ccc(NC(=S)N/N=C2/CCCCc3ccccc32)cc1 | -3.99
CCN(CC)CCOC(c1ccccc1)c1ccc(C)cc1.Cl (stereo not drawn) | -73
CC1SC(C)C(=O)N(CC(=O)NCc2ccc(F)cc2)C1=O (stereo not drawn) | -2.24
COc1cc(O)c(C(CCN2CCCCC2)c2ccc(N(C)C)cc2)c(OC)c1 (stereo not drawn) | -8.43
Nc1n[nH]c(-c2ccccc2[N+](=O)[O-])n1 | 20.2

SMILES | hERG current change (%, negative = inhibition) at 10uM [%]
CC1=C(C(=O)OC2CCCC2)C(c2coc3ccccc3c2=O)C2=C(CC(C)(C)CC2=O)N1 (stereo not drawn) | -38.6
COCCCNC(CC(=O)Nc1ccc(OC)cc1OC)C(=O)O (stereo not drawn) | 5.01
CC1CCN(c2ccc(S(=O)(=O)Nc3cc(C(=O)O)cc(C(=O)O)c3)cc2[N+](=O)[O-])CC1 | -0.817
COc1ccc(N2CCN(C(=O)COC(=O)c3ccco3)CC2)cc1 | 2.51
O=C(NCCc1ccccc1)C(NS(=O)(=O)c1cccc2nsnc12)c1ccccc1 (stereo not drawn) | -25.4
Cn1ncc(Br)c1NC(=O)Nc1ccccc1 | 17.5
CN1CCN(NC(=S)Nc2ccc(OC(F)F)cc2)CC1 | -33.9
O=C(Nc1ncn[nH]1)c1cc(S(=O)(=O)Nc2cccc(C(F)(F)F)c2)ccc1Cl | 17.8
C=CCNC(=O)CC1C(=O)NCCN1Cc1c(F)cccc1Cl (stereo not drawn) | 14.2
Cc1ccc(NC(=O)c2c(C(F)(F)F)nn(C)c2SCc2cccc(C(F)(F)F)c2)cc1C | -2.8
COc1ccc(-n2c(/C=C(\C)O)nc(=O)c3c(C)cc(C)nc32)cc1 | 2.38
OC(COc1ccc2ccccc2c1)CN1CCCC1 (stereo not drawn) | -19.1
CCCNC(=O)COC(=O)c1ccc(-c2ccccc2)cc1 | 9.43
Cc1c2ccccc2nc2ccccc12 | -1.84
COc1cccc(NC(=O)CN(C)C(=O)c2cc(S(=O)(=O)N3CCCCC3)ccc2Cl)c1 | -34.7
COc1cccc(C(=O)NCc2nnc(SCC(=O)Nc3nccs3)n2-c2ccccc2)c1 | -4.43
Br.COc1ccc(-c2csc(Nc3ccc(S(N)(=O)=O)cc3)n2)cc1OC | 25.5
O=C(CSc1n[nH]c(=O)n1Cc1ccco1)c1ccc2c(c1)OCCO2 | 15
Nc1cccc(Nc2nc(OC(C(F)(F)F)C(F)(F)F)nc(OC(C(F)(F)F)C(F)(F)F)n2)c1 | -3.49
CC(=O)CSc1nc2ccccc2s1 | 7.11
CSc1nc2nc3c(cc2c(=O)n1-c1ccccc1C)CCCC3 | -15.6
CCCCS(=O)(=O)Nc1ccc(N2CCOCC2)c(S(=O)(=O)N2CCOCC2)c1 | -16.4

SMILES | hERG current change (%, negative = inhibition) at 10uM [%]
Cn1nnc2cc(C(=O)NCc3ccco3)ccc21 | 1.15
COc1ccc(C(=O)SC2=NCCS2)cc1OC | -11.7
COc1ccc(CC(NC(C)=O)C(=O)NC2CCN(c3nc(C)cc(C)c3C#N)CC2)cc1OC (stereo not drawn) | 9.91
CCn1c(CNC(=O)COc2ccc(C(C)C)cc2)nnc1SCC(=O)NC1CCCCC1C (stereo not drawn) | -16.8
N#C/C(=C1\CCCN1)c1nc2ccccc2c(=O)[nH]1 | 17.8
Nc1cc(=O)[nH]c(SCC(=O)Nc2ccc(Oc3ccccc3)cc2)n1 | 5.51
OCCC1CN(CCCn2cccn2)CCN1Cc1ccccc1 (stereo not drawn) | -8.62
O=C(NNS(=O)(=O)c1cc(Cl)cc(Cl)c1)c1sccc1-n1cccc1 | 0.806
Cc1c(C(=O)Nc2nc3ccccc3[nH]2)cccc1[N+](=O)[O-] | -5.7
CCN(CC)c1nc2ccccc2n(Cc2cccc(OC)c2)c1=O | 1.94
C/C(CCN1CCc2nc(-c3ccccc3)c(-c3ccccc3)cc2C1)=N\O[C@@H](C)c1cn([C@H](CO)Cc2ccccc2)nn1 | -18.3
CC1CCN(c2cc(N3CCC(C)CC3)c([N+](=O)[O-])cc2/C=C(\C#N)c2nn(-c3ccccc3)c(N)c2C#N)CC1 | -10.2
CC(C)CCNC(=O)C12CN(Cc3ccccc3)CC1C(c1cccc([N+](=O)[O-])c1)=NO2 (stereo not drawn) | -32.9
Cc1ccc(S(=O)(=O)c2c(N)n(CCCO)c3nc4ccccc4nc23)cc1 | -21.4
COc1ccc(-c2noc(CCC(=O)NCC3CCCO3)n2)cc1 (stereo not drawn) | 12.3
COc1ccc(NC(=O)CCNC(=O)Cn2cnc3ccccc3c2=O)cc1OC | 16.1
Cn1cnnc1SCC(=O)N1CCc2ccccc21 | 10.6
CCc1ccccc1C1C(=O)c2ccccc2C1=O | 17.9
Cc1onc(-c2ccccc2)c1C(=O)N1CC(C)OC(C)C1 (stereo not drawn) | 4.66
CC(=O)Oc1ccccc1C(=O)Oc1ccccc1C(=O)O | 14.4
N#Cc1ccc(CSc2nnc(NC(=O)CN3C(=O)C4CC=CCC4C3=O)s2)cc1 (stereo not drawn) | -20.2

Reference: article PMC4336329 (PLoS ONE, 2015)
